About 2,200 (0.71%) of roughly 310,000 compounds showed an effect of 50% or more. Effects have a minus sign here. The list shows a part of the results.
target: human ether-à-go-go-related gene (hERG) potassium channel (human, UniProt Q12809); assay: primary screen, population patch clamp on CHO cells stably expressing hERG
Sequence (Q12809 whole entry, looked up): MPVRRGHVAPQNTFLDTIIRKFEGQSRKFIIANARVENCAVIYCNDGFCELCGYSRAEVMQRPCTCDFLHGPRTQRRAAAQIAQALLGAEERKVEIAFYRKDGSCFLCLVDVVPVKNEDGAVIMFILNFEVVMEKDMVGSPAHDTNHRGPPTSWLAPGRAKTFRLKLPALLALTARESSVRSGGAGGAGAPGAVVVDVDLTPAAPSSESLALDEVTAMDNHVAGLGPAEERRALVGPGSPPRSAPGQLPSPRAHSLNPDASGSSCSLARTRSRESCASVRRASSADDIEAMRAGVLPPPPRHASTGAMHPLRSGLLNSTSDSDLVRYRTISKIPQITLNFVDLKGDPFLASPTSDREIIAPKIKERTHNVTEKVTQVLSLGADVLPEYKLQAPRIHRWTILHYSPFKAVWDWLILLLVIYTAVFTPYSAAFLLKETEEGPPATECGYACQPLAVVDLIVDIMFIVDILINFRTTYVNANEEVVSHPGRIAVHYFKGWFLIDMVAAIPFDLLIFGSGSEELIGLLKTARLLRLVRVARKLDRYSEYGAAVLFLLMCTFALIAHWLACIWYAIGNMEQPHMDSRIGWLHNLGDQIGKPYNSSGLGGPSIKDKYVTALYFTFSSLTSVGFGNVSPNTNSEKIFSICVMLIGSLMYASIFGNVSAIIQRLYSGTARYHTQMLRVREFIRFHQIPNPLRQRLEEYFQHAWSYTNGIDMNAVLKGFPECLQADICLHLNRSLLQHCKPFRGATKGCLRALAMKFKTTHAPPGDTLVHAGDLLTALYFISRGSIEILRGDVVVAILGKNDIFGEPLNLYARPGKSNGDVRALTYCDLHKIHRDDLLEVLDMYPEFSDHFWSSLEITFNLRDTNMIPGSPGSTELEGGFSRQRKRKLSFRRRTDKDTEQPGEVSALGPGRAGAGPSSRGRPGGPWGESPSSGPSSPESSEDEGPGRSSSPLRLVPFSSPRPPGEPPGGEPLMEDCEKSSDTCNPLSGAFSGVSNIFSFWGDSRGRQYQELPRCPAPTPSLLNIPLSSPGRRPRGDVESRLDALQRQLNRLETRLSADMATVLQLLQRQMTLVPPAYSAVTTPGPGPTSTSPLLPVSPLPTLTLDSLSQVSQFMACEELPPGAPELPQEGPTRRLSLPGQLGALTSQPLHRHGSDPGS

Row | SMILES | hERG current change (%, negative = inhibition) at 1uM
1 | CCn1c(SCc2ccc(OC)c(F)c2)nc2ccccc2c1=O | 17.2%
2 | COc1cc(OC)c(C(=O)N2CCCC2)cc1OC | 6.17%
3 | CC(C)Cc1ccc(C(C)C(=O)Nc2ccccc2O)cc1 (stereo not drawn) | 10.1%
4 | Oc1c(Br)cc(Br)cc1C=Nc1cccnc1 | 10.5%
5 | COc1ccccc1CNC(=O)CN(c1ccc(C)cc1)S(=O)(=O)c1c(C)n[nH]c1C | 9.68%
6 | COC(=O)CSc1nnc(SCc2ccc(Cl)cc2)s1 | 8.13%
7 | CCN(CC)C(=O)CSc1nnc([C@@H](N)C(C)C)o1.Cl | 15.2%
8 | CCOC(=O)c1cnc(-n2nc(C)cc2C)nc1N(C)C | 0.34%
9 | CCOC(=O)N1CCN(C(=O)c2cccc(S(=O)(=O)Nc3ccc(OC)cc3)c2)CC1 | 5.95%
10 | O=C(CSc1c2c(nc3cc(Cl)ccc13)CCCC2)NCCN1CCOCC1 | 0.879%
11 | Cc1c(Cl)cccc1NC(=O)[C@@H](NC(=O)c1ccccc1Cl)C(C)C | 4.34%
12 | O=C(NC1CCCC1)C(c1ccc(F)cc1)N(C(=O)c1csnn1)C1CC1 (stereo not drawn) | 2.95%
13 | Nc1ccc(C2(c3ccc(N)cc3)OC(=O)c3ccccc32)cc1 | 6.66%
14 | COCCOC(=O)C1=C(C)NC(=O)NC1c1c(Cl)nc2ccccn2c1=O (stereo not drawn) | 7.13%
15 | CC(C)(C)NS(=O)(=O)c1ccc(NC(=S)NC(=O)C2CC2)cc1 | 10.5%
16 | COc1ccc(C(=O)COC(=O)c2cc(S(=O)(=O)NCc3ccccc3)ccc2O)cc1 | 11.6%
17 | O=C(NCc1ccc2c(c1)OCO2)NC12CC3CC(CC(C3)C1)C2 | 9.28%
18 | COc1ccccc1NC(=S)NNC(=O)c1nn(C)c(C)c1Cl | 3.98%
19 | Cc1cc(C[n+]2ncsc2N)c2ncccc2c1.[Br-] | -5.08%
20 | O=C1NCCN/C1=C\C(=O)c1cccc(Br)c1 | 1.79%
21 | CCN(CC(=O)Nc1c(F)cccc1F)C(=O)CCCc1c[nH]c2ccccc12 | 14.5%
22 | CC(C)(C)c1ccc(-c2nnc(NC(=O)c3ccccc3)s2)cc1 | 3.7%
23 | CCOC(=O)c1ccc(NC(=O)[C@@H](NC(N)=O)C(C)C)cc1 | -0.13%

Row | SMILES | hERG current change (%, negative = inhibition) at 1uM
24 | O=C(COC(=O)[C@H](Cc1ccccc1)NC(=O)c1cccs1)NC1CCCCC1 | 2.71%
25 | O=C(CCCSc1nnnn1-c1cccc2ccccc12)c1ccc(F)cc1 | 3.22%
26 | NS(=O)(=O)c1ccc(CNS(=O)(=O)Cc2ccc(Cl)cc2)cc1 | 13.6%
27 | O=[N+]([O-])c1ccc(N2CCNCC2)cc1Sc1ccccn1 | -1.17%
28 | COc1ccc(Nc2cc(C)nc(-n3nc(C)cc3C)n2)cc1 | -5.13%
29 | COc1cc(CNCCC2CCOC(C)(C)C2)ccc1O.Cl (stereo not drawn) | 7.33%
30 | CC(=O)c1cccc(NC(=S)NC(=O)c2ccccc2)c1 | 13.1%
31 | CCSc1nnc(NC(=O)NC(C)(C(F)(F)F)C(F)(F)F)s1 | -3.35%
32 | Cn1nc(C(C)(C)C)cc1C(=O)NN1CCOCC1 | 15.4%
33 | COc1ccc2c(c1)N(C(=O)CSc1n[nH]c(C)n1)C(C)(C)C=C2C | 2.52%
34 | O=C(CN1CCN(c2cccc(Cl)c2)CC1)Nc1ccc(S(=O)(=O)N2CCOCC2)cc1 | 13.9%
35 | CCOc1ccc(NC(=S)NC2CC3CCC(C2)N3Cc2ccco2)cc1 (stereo not drawn) | -10.1%
36 | CN1C(=O)C(Cc2ccsc2)C(=O)N(C)C1=O | 2.79%
37 | COc1ccc(N2CCN(Cc3cc4c(cc3O)CCC4)CC2)cc1 | 8.84%
38 | CC1CCN(CC(O)COc2ccc(C(=O)c3ccccc3)cc2)CC1 (stereo not drawn) | -20.2%
39 | COc1ccccc1NC(=O)NNC(=O)c1ccc2c(c1)NC(=O)C(C)(C)O2 | 15.7%
40 | COc1ccccc1NC(=O)NC(N)=O | 7%
41 | COc1ccc(N2CCN(C(=O)C(=O)c3c(C)[nH]c4ccccc34)CC2)cc1 | 13.3%
42 | NC(N)=NS(=O)(=O)c1ccc(NC(=S)NC(=O)/C=C/c2ccc(F)cc2)cc1 | 9.08%
43 | CCO[C@H]1OC(C(=O)N2CCCCCCC2)=C[C@@H](c2csc3ccccc23)[C@@H]1CCCO | 5.32%
44 | CC(C)COC(=O)N1CCCC1C(=O)O (stereo not drawn) | 3.26%
45 | COCCn1c(SCC(=O)c2c(-c3ccccc3)n(C)c3ccccc23)nnc1-c1ccncc1 | 7.61%
46 | Clc1ccccc1NC1=NCCCS1 | 13.8%

Row | SMILES | hERG current change (%, negative = inhibition) at 1uM
47 | COc1ccc(CCNC(=O)Cc2ccc(C)cc2)cc1OC | 15.5%
48 | Cc1ccc(C)n1C1CCS(=O)(=O)C1 (stereo not drawn) | 13.9%
49 | N#Cc1ncccc1CCc1cccc(Cl)c1 | 11.4%
50 | O=C(CN1CCOCC1)NN=C(c1ccccc1)c1ccccc1 | 15.9%
51 | Cc1cccc(C)c1NC(=O)C(=O)NCCc1c[nH]c2ccccc12 | 13.3%
52 | Cc1cc2nc3c(nc2cc1C)C(O)=C3O | 11.4%
53 | CCS(=O)(=O)CCSc1nc2ccccc2s1 | -9.56%
54 | CCOc1cc(CN2CCCCCC2)ccc1OC | 12.4%
55 | Cc1cc(C)n2nc(C(=O)Nc3nnc(C4CC4)s3)nc2n1 | 9.94%
56 | O=C1CC(N2CCN(c3ccccc3)CC2)C(=O)N1c1cccc(Cl)c1 (stereo not drawn) | 10.3%
57 | COc1ccccc1-c1cc(C(F)(F)F)nc(S(=O)(=O)CCCC(=O)NC(C)C)n1 | 7.65%
58 | CCOCCCNC(=O)C(c1ccccc1)N(Cc1cccs1)C(=O)c1ccccc1O (stereo not drawn) | 17.5%
59 | O=[N+]([O-])c1ccccc1/C=N/N1CCN(c2ccc(Cl)cc2)CC1 | 5.6%
60 | O=C(c1cccc(N2C(=O)c3ccccc3C2=O)c1)N1CCCC(C(F)(F)F)C1 (stereo not drawn) | -9.97%
61 | COc1ccc(-c2nc(-c3cccs3)c(-c3cccs3)[nH]2)cc1O | -3.8%
62 | O=C(Cc1ccc(F)cc1)N/N=C/c1ccc2c(c1)OCO2 | 8.72%
63 | Cc1ccc(S(=O)(=O)N(C)c2cc(S(N)(=O)=O)c(C)cc2C)cc1 | 6.07%
64 | O=C(COc1ccccc1F)Nc1cc(S(=O)(=O)Nc2cccc(Cl)c2)ccc1O | 18.8%
65 | COc1cc(CCC(=O)OCC(=O)Nc2ccc(C)cc2Cl)cc(OC)c1OC | 15.1%
66 | O=C(Nc1ccc(-c2nc3ccccc3s2)cc1)c1cc(-n2cnnc2)ccc1Cl | 3.47%
67 | O=C(COC(=O)COc1ccc2ccccc2c1)Nc1cc(C(F)(F)F)ccc1N1CCOCC1 | 15.9%
68 | Cc1cc(C)c2[nH]c(=O)c(CN(Cc3ccco3)C(=S)NCC3CCCO3)cc2c1 (stereo not drawn) | 5.63%
69 | CSc1ccc(C(=O)C2CCCN(S(=O)(=O)c3c(C)noc3C)C2)cc1 (stereo not drawn) | 6.97%

Row | SMILES | hERG current change (%, negative = inhibition) at 1uM
70 | COc1ccc(NC(=O)C2CCN(S(=O)(=O)c3cn(C)nc3C)CC2)cc1 | -2.13%
71 | COc1ccc(-c2nc3c(-c4ccc(Cl)cc4)cnn3cc2C)cc1F | 12.1%
72 | COc1cc(C(=O)Nc2ccc(C)cc2)c2ccccc2n1 | 7.49%
73 | O=C(CN(c1ccc(Cl)c(C(F)(F)F)c1)S(=O)(=O)c1ccccc1)N/N=C/c1cccc2c1OCCO2 | 18.3%
74 | CN1C(=O)CC(c2ccco2)Sc2ccccc21 (stereo not drawn) | -3.05%
75 | CC(C)CCn1c(O)c(N=Nc2ccccn2)c2ccccc21 | 13.5%
76 | COc1ccc(C(NC(=O)c2cccc(F)c2)c2ccccc2)cc1 (stereo not drawn) | 4.02%
77 | COc1ccc(C(C(=O)NC2CCCCC2)N(Cc2cccs2)C(=O)Cc2c[nH]c3ccccc23)cc1 (stereo not drawn) | 11.9%
78 | CC(=O)c1ccc(S(=O)(=O)N2CCN(C)CC2)cc1 | 10.8%
79 | Cc1ccccc1C(=O)N1CCC(C(=O)O)CC1 | -1.25%
80 | COc1cc(S(=O)(=O)NCCN2CCOCC2)ccc1-n1cnnn1 | 17%
81 | CCN1C(=NCC(C)C)N[C@@H](c2cccc(C(F)(F)F)c2)C(C(=O)OC)=C1C | -3.54%
82 | CC(C)COc1ccc(CNC(=S)NCc2ccccc2)cc1 | 12.7%
83 | COC(=O)c1ccccc1NC(=O)C12CCC(C)(C(=O)O1)C2(C)C (stereo not drawn) | 11.1%
84 | Cc1cc(NS(=O)(=O)c2ccc(NC(=S)NC(=O)c3ccncc3)cc2)no1 | 14.6%
85 | c1ccc2c(C3=NNC(=NC4CC4)SC3)c[nH]c2c1 | 3.46%
86 | Cc1ccc(NC(=S)Nc2cccc3cnccc23)cc1C | 7.99%
87 | CCN(CC)S(=O)(=O)c1ccc(N2CCCC2)c(NS(=O)(=O)c2ccc([N+](=O)[O-])cc2)c1 | 1.4%
88 | CCNC(=O)CN(c1ccc(C)cc1)S(=O)(=O)c1ccccc1 | 15.4%
89 | O=[n+]1cc(-c2ccccc2)n([O-])c2c1CCC2 | 15.8%
90 | O=C1OCCN1c1c(-c2ccccc2)c(N2CCOCC2)nc2ccccc12 | 4.87%

— PMC4336329 (PLoS ONE, 2015)
